Laboratory results as given in the supplement of paper PMC8728848.
Some of the results follow.

Key:
Assay in all cases: glycan array binding signal (z-score within array); higher = stronger binding
Conditions in all cases: glycan notation: IUPAC condensed, linker removed
[1] = target: Neu5Ac(a2-3)[GalNAc(b1-4)]Gal(b1-4)Glc
How it was run: (§1)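 From the Consortium for Functional Glycomics database, 3228 arrays were curated, keeping only those whose protein sequence was available. Binding is given as a within-array Z-score averaged across arrays sharing a protein sequence and across linkers. Negative Z-scores can be read as non-binding.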

[2] = target: Neu5Ac(a2-3)[GalNAc(b1-4)]Gal(b1-4)GlcNAc
How it was run: as §1

[3] = target: Neu5Ac(a2-3)[GalNAc(b1-4)]Gal(b1-4)GlcNAc(b1-3)GalNAc
How it was run: as §1

[4] = target: Neu5Ac(a2-3)[Neu5Ac(a2-6)]GalNAc
How it was run: as §1

[5] = target: Neu5Ac(a2-6)Gal
How it was run: as §1

[6] = target: Neu5Ac(a2-6)Gal(b1-3)GlcNAc(b1-3)[Gal(b1-4)GlcNAc(b1-6)]Gal(b1-4)Glc
How it was run: as §1

[7] = target: Neu5Ac(a2-6)Gal(b1-4)Glc
How it was run: as §1

[8] = target: Neu5Ac(a2-6)Gal(b1-4)GlcNAc
How it was run: as §1

[9] = target: Neu5Ac(a2-6)Gal(b1-4)GlcNAc(b1-2)Man(a1-3)Man(b1-4)GlcNAc(b1-4)GlcNAc
How it was run: as §1

[10] = target: Neu5Ac(a2-6)Gal(b1-4)GlcNAc(b1-2)Man(a1-3)[Gal(b1-4)GlcNAc(b1-2)Man(a1-6)]Man(b1-4)GlcNAc(b1-4)GlcNAc
How it was run: as §1

[11] = target: Neu5Ac(a2-6)Gal(b1-4)GlcNAc(b1-2)Man(a1-3)[GlcNAc(b1-2)Man(a1-6)]Man(b1-4)GlcNAc(b1-4)GlcNAc
How it was run: as §1

[12] = target: Neu5Ac(a2-6)Gal(b1-4)GlcNAc(b1-2)Man(a1-3)[GlcNAc(b1-2)Man(b1-4)GlcNAc(b1-2)Man(a1-6)]Man(b1-4)GlcNAc(b1-4)GlcNAc
How it was run: as §1

[13] = target: Neu5Ac(a2-6)Gal(b1-4)GlcNAc(b1-2)Man(a1-3)[Man(a1-6)]Man(b1-4)GlcNAc(b1-4)GlcNAc
How it was run: as §1

[14] = target: Neu5Ac(a2-6)Gal(b1-4)GlcNAc(b1-2)Man(a1-3)[Neu5Ac(a2-6)Gal(b1-4)GlcNAc(b1-2)Man(a1-6)]Man(b1-4)GlcNAc(b1-4)GlcNAc
How it was run: as §1

[15] = target: Neu5Ac(a2-6)Gal(b1-4)GlcNAc(b1-2)Man(a1-6)Man(b1-4)GlcNAc(b1-4)GlcNAc
How it was run: as §1

[16] = target: Neu5Ac(a2-6)Gal(b1-4)GlcNAc(b1-2)Man(a1-6)[Gal(b1-4)GlcNAc(b1-2)Man(a1-3)]Man(b1-4)GlcNAc(b1-4)GlcNAc
How it was run: as §1

[17] = target: Neu5Ac(a2-6)Gal(b1-4)GlcNAc(b1-2)Man(a1-6)[GlcNAc(b1-2)Man(a1-3)]Man(b1-4)GlcNAc(b1-4)GlcNAc
How it was run: as §1

[18] = target: Neu5Ac(a2-6)Gal(b1-4)GlcNAc(b1-2)Man(a1-6)[Man(a1-3)]Man(b1-4)GlcNAc(b1-4)GlcNAc
How it was run: as §1

[19] = target: Neu5Ac(a2-6)Gal(b1-4)GlcNAc(b1-3)Gal(b1-3)GlcNAc
How it was run: as §1

[20] = target: Neu5Ac(a2-6)Gal(b1-4)GlcNAc(b1-3)Gal(b1-4)GlcNAc
How it was run: as §1

[21] = target: Neu5Ac(a2-6)Gal(b1-4)GlcNAc(b1-3)Gal(b1-4)GlcNAc(b1-3)Gal(b1-4)GlcNAc
How it was run: as §1

[22] = target: Neu5Ac(a2-6)Gal(b1-4)GlcNAc(b1-3)Gal(b1-4)[Fuc(a1-3)]GlcNAc(b1-3)Gal(b1-4)[Fuc(a1-3)]GlcNAc
How it was run: as §1

[23] = target: Neu5Ac(a2-6)Gal(b1-4)GlcNAc(b1-3)GalNAc
How it was run: as §1

[24] = target: Neu5Ac(a2-6)Gal(b1-4)GlcNAc6S
How it was run: as §1

[25] = target: Neu5Ac(a2-6)GalNAc
How it was run: as §1

[26] = target: Neu5Ac(a2-6)GalNAc(b1-4)GlcNAc
How it was run: as §1

[27] = target: Neu5Ac(a2-6)GlcNAc(b1-4)GlcNAc
How it was run: as §1

[28] = target: Neu5Ac(a2-6)GlcNAc(b1-4)GlcNAc(b1-4)GlcNAc
How it was run: as §1

[29] = target: Neu5Ac(a2-8)Neu5Ac
How it was run: as §1

[30] = target: Neu5Ac(a2-8)Neu5Ac(a2-3)Gal(b1-3)GalNAc(b1-4)[Neu5Ac(a2-8)Neu5Ac(a2-3)]Gal(b1-4)Glc
How it was run: as §1

[31] = target: Neu5Ac(a2-8)Neu5Ac(a2-3)Gal(b1-4)Glc
How it was run: as §1

[32] = target: Neu5Ac(a2-8)Neu5Ac(a2-3)[Gal(b1-3)GalNAc(b1-4)]Gal(b1-4)Glc
How it was run: as §1

[33] = target: Neu5Ac(a2-8)Neu5Ac(a2-3)[GalNAc(b1-4)]Gal(b1-4)Glc
How it was run: as §1

[34] = target: Neu5Ac(a2-8)Neu5Ac(a2-8)Neu5Ac
How it was run: as §1

[35] = target: Neu5Ac(a2-8)Neu5Ac(a2-8)Neu5Ac(a2-3)Gal(b1-4)Glc
How it was run: as §1

[36] = target: Neu5Ac(a2-8)Neu5Ac(a2-8)Neu5Ac(a2-3)[GalNAc(b1-4)]Gal(b1-4)Glc
How it was run: as §1

[37] = target: Neu5Ac(a2-8)Neu5Ac(a2-8)Neu5Ac(a2-8)Neu5Ac(a2-3)[GalNAc(b1-4)]Gal(b1-4)Glc
How it was run: as §1

[38] = target: Neu5Ac(b2-6)Gal(b1-4)GlcNAc
How it was run: as §1

[39] = target: Neu5Ac(b2-6)GalNAc
How it was run: as §1

[40] = target: Neu5Ac9Ac(a2-3)Gal(b1-3)GlcNAc
How it was run: as §1

[41] = target: Neu5Ac9Ac(a2-3)Gal(b1-4)GlcNAc
How it was run: as §1

[42] = target: Neu5Ac9Ac(a2-6)Gal(b1-4)GlcNAc
How it was run: as §1

[43] = target: Neu5Gc(a2-3)Gal(b1-3)GlcNAc
How it was run: as §1

[44] = target: Neu5Gc(a2-3)Gal(b1-3)[Fuc(a1-4)]GlcNAc
How it was run: as §1

[45] = target: Neu5Gc(a2-3)Gal(b1-4)Glc
How it was run: as §1

[46] = target: Neu5Gc(a2-3)Gal(b1-4)GlcNAc
How it was run: as §1

[47] = target: Neu5Gc(a2-3)Gal(b1-4)[Fuc(a1-3)]GlcNAc
How it was run: as §1

[48] = target: Neu5Gc(a2-6)Gal(b1-4)GlcNAc
How it was run: as §1

[49] = target: Neu5Gc(a2-6)GalNAc
How it was run: as §1

[50] = target: Neu5Gc(b2-6)Gal(b1-4)GlcNAc
How it was run: as §1

B1: SCA (Schizophyllum commune) (protein)
chain: MGIDQGVYLITNAGSGTAATLKDGYVKGWERIKGKEQLNQLWFVKSVKTSASDPGYAAFNLATNKVLDLEKGLADRGTPILGWDYHEGDNQHWVIKKQADGKYYKIQSVKTQTFVDLNNGGKDNGTKIQGWVGSWDETNSHQRWVFNQFSATGSRIKSILDTHPKIHGKVIVEWPDRIYFTPDQYIFEAIWAKTGLADIKPRDPLFQSEAYEKVFKGWVVSRAQEIIKVDGFDILVGSLSLVEKSTQKIKVLDVSVRTSDDKSPDLSQIVFFDPESGRTLVDIPEGYEVNSVII
glycan array binding signal (z-score) [1]: -0.156
glycan array binding signal (z-score) [2]: -0.162
glycan array binding signal (z-score) [3]: -0.161
glycan array binding signal (z-score) [4]: -0.159
glycan array binding signal (z-score) [5]: -0.163
glycan array binding signal (z-score) [6]: -0.158
glycan array binding signal (z-score) [7]: -0.161
glycan array binding signal (z-score) [8]: -0.162
glycan array binding signal (z-score) [9]: -0.162
glycan array binding signal (z-score) [10]: -0.161
glycan array binding signal (z-score) [11]: -0.155
glycan array binding signal (z-score) [12]: -0.16
glycan array binding signal (z-score) [13]: -0.153
glycan array binding signal (z-score) [14]: -0.16
glycan array binding signal (z-score) [15]: -0.16
glycan array binding signal (z-score) [16]: -0.157
glycan array binding signal (z-score) [17]: -0.157
glycan array binding signal (z-score) [18]: -0.158
glycan array binding signal (z-score) [19]: -0.159
glycan array binding signal (z-score) [20]: -0.16
glycan array binding signal (z-score) [21]: -0.165
glycan array binding signal (z-score) [22]: -0.156
glycan array binding signal (z-score) [23]: 0.316
glycan array binding signal (z-score) [24]: -0.141
glycan array binding signal (z-score) [25]: -0.162
glycan array binding signal (z-score) [26]: -0.162
glycan array binding signal (z-score) [27]: -0.141
glycan array binding signal (z-score) [28]: -0.16
glycan array binding signal (z-score) [29]: -0.161
glycan array binding signal (z-score) [30]: -0.156
glycan array binding signal (z-score) [31]: -0.163
glycan array binding signal (z-score) [32]: -0.161
glycan array binding signal (z-score) [33]: -0.161
glycan array binding signal (z-score) [34]: -0.157
glycan array binding signal (z-score) [35]: -0.16
glycan array binding signal (z-score) [36]: -0.165
glycan array binding signal (z-score) [37]: -0.132
glycan array binding signal (z-score) [38]: -0.159
glycan array binding signal (z-score) [39]: -0.162
glycan array binding signal (z-score) [40]: -0.16
glycan array binding signal (z-score) [41]: -0.16
glycan array binding signal (z-score) [42]: -0.161
glycan array binding signal (z-score) [43]: -0.16
glycan array binding signal (z-score) [44]: -0.16
glycan array binding signal (z-score) [45]: -0.163
glycan array binding signal (z-score) [46]: -0.161
glycan array binding signal (z-score) [47]: -0.161
glycan array binding signal (z-score) [48]: -0.162
glycan array binding signal (z-score) [49]: -0.163
glycan array binding signal (z-score) [50]: -0.161
